# Out of some 310,000 compounds screened, about 2,200 (0.71%) showed an effect of 50% or more. Effects have a minus sign here. This is one part of the list.
# Target: human ether-à-go-go-related gene (hERG) potassium channel (human, UniProt Q12809)
# Test: primary screen, population patch clamp on CHO cells stably expressing hERG
# Sequence of human ether-à-go-go-related gene (hERG) potassium channel (Q12809 whole entry, looked up): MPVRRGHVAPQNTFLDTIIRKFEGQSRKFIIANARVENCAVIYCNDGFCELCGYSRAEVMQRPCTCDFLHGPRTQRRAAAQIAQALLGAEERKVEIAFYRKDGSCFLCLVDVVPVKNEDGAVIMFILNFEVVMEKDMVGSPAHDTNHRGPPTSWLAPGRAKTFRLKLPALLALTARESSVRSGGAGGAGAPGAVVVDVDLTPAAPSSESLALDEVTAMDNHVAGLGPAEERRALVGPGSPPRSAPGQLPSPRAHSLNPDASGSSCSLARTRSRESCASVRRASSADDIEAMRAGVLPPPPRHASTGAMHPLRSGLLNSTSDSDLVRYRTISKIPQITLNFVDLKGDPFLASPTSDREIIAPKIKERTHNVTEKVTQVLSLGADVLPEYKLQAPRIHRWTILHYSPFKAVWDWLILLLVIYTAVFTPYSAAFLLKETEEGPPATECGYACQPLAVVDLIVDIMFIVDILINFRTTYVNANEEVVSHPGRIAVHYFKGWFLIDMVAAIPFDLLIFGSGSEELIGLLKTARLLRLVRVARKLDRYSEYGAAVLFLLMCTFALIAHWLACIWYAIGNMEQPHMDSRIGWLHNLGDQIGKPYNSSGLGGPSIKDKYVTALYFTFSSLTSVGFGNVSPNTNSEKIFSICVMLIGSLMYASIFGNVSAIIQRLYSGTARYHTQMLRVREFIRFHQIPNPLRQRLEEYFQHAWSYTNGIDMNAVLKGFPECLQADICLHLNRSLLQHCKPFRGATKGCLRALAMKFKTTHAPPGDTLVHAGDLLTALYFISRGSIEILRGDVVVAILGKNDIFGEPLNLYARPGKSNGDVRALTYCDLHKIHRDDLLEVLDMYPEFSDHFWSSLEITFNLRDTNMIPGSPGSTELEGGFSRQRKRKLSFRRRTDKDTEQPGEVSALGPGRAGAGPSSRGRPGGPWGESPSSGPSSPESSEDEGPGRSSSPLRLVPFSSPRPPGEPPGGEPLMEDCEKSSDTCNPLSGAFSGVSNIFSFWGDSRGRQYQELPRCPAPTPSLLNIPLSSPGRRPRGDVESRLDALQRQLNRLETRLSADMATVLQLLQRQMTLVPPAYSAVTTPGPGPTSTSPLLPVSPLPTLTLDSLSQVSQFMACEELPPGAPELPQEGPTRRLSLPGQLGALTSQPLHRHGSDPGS
row,SMILES,"hERG current change (%, negative = inhibition) at 1uM [%]"
1,CCCNC(=O)c1onc(CSc2ccc(F)c(F)c2)c1C(=O)NCCC,-9.42
2,CCOC(=O)c1cc(NC(=O)C2C3CCC(O3)C2C(=O)O)cc(C(=O)OCC)c1 (stereo not shown),-0.572
3,Cc1cc(C)c(NC(=O)CSc2ccc3nnc(CCNC(=O)c4ccccc4)n3n2)c(C)c1,11.5
4,O=C(c1cc(F)ccc1F)C1CCCN(C(=O)CCc2cnccn2)C1 (stereo not shown),9.15
5,Cn1c(COc2ccc([N+](=O)[O-])cc2)nnc1SCC(=O)NCC1CCCO1 (stereo not shown),6.05
6,CC(C)(C)OC(=O)N[C@H](C(=O)OC(C)(C)C)c1ccc2c(c1)OCO2,2.84
7,COc1cc(F)ccc1S(=O)(=O)N1CCN(Cc2ccccc2)CC1,4.64
8,C=CCNC(=O)/C(C#N)=C/c1c(C)nn(-c2ccc(Cl)cc2)c1Cl,13.4
9,CCSc1nc(-c2ccccc2)nc(C(Cl)Cl)n1,1.76
10,Cc1ccc(CN2CC(=O)N3[C@H]4c5cc(C)ccc5OC[C@@H]4[C@H](c4ccccc4)[C@]3(C)C2=O)cc1,11.3
11,CN1CCC(N(C)C(=S)Nc2ccc(F)cc2)CC1,11.4
12,CC1CN(CCCCSc2ccccc2)CC(C)O1.Cl (stereo not shown),9.79
13,c1ccc2oc(-c3[nH]ncc3CN3CCSCC3)cc2c1,9.72
14,COc1ccc(S(=O)(=O)NCC(=O)N(CC(=O)NCC2CCCO2)Cc2ccc(F)cc2)cc1 (stereo not shown),6.74
15,Cc1ccc(C(=O)CSc2ccccc2C(=O)O)cc1,7.05
16,CC1=CC(=C2C(=O)NC(=O)NC2=O)C=C(C(F)(F)F)N1Cc1ccccc1,11.4
17,CC(C)n1cc(CN2CCN(C)C(CCO)C2)c2ccccc21 (stereo not shown),12
18,Cc1ccc(NC(=S)NNC(=O)Cn2nc([N+](=O)[O-])cc2C)cc1,18.7
19,COc1cc(/C=N/NC(=O)c2ccc(O)cc2)ccc1OCC(=O)Nc1cccc([N+](=O)[O-])c1,10.8
20,CN(C)/N=C/c1ccc(Sc2ccccc2[N+](=O)[O-])o1,15.6
21,Cc1ccc(C2C3=C(CCCC3=O)N=C3c4ccccc4C(=O)C32)cc1 (stereo not shown),7.26
22,O=c1c(-c2nc3ccccc3s2)cccn1Cc1ccc(Cl)cc1,4.91

row,SMILES,"hERG current change (%, negative = inhibition) at 1uM [%]"
1,COC(=O)c1ccc(C)c(NC(=O)CN2C(=O)c3ccccc3S2(=O)=O)c1,9.39
2,Cc1cccnc1NS(=O)(=O)c1cccc([N+](=O)[O-])c1,6.18
3,COc1ccc([N+](=O)[O-])cc1NC(=O)CCN1CCOCC1,4.67
4,CC(=O)Nc1cc[n+](C(C)C(=O)c2ccccc2)cc1.[Cl-] (stereo not shown),12.2
5,Cc1cc(Nc2cccc(C(=O)O)c2)n2ncnc2n1,12.7
6,COc1cc(C(=O)NCC(=O)OCc2cc(=O)oc3c(C)c(C)ccc23)cc(OC)c1OC,4.1
7,CCCCCCn1c(SCC(=O)Nc2cc(C)on2)nc2ccccc2c1=O,-2.67
8,Cc1c(NC(=O)c2noc(C(C)C)c2[N+](=O)[O-])c(=O)n(-c2ccccc2)n1C,18.4
9,COc1cc2c(cc1OC)C(=O)CC(C)S2 (stereo not shown),17.9
10,CCc1cc2c(=O)c(-c3nc4ccccc4n3C)coc2c(CN2CCOCC2)c1O,5.17
11,CCN(CC)C(=S)NC(=O)c1cc(OC)c(OC)c(OC)c1,17.6
12,O=[N+]([O-])c1cccc(/C=C/c2ccc3cccc(O)c3n2)c1,4.16
13,C/C(=N\NC(=O)c1ccncc1)c1cc2ccccc2o1,7.82
14,CCOC(=O)c1c(C)[nH]c(C)c1C=O,11.8
15,CCN(C(=O)COC(=O)c1cnc(C)cn1)C1CCCCC1,-2.34
16,COC(=O)c1cccc(NC(=S)NCc2ccco2)c1,8.98
17,CC(C)NC(=O)CSc1ccccc1C(=O)NNC(=O)Cn1ccc(C(F)(F)F)n1,6.88
18,CCN(CC)CCN(Cc1cc2ccc(C)cc2[nH]c1=O)C(=S)Nc1ccccc1C(=O)OC,-40.2
19,CCCCn1c(SCC(=O)NCCc2ccc(OC)c(OC)c2)nc2c1c(=O)n(C)c(=O)n2C,-0.0812
20,Fc1ccc(N/N=C/C=C/c2ccccc2)c(F)c1,4.46
21,COc1ccc(NC2CCCN(C(=O)c3ccc(C)c(N4CCNC4=O)c3)C2)cc1 (stereo not shown),13.1
22,CNC(=S)N1N=C(c2ccc(C)cc2)CC1c1ccc(Br)cc1 (stereo not shown),1.14

row,SMILES,"hERG current change (%, negative = inhibition) at 1uM [%]"
1,COc1cc(NC(=O)CCC2CCCC2)cc(-n2cnnn2)c1,6.77
2,CCc1c(C(=O)NCCc2cccc(C)c2)[nH]c(C)c1C(C)=O,6.8
3,CCOCCCNC(=O)C1(O)c2ccccc2NC(=O)N1c1ccc(Cl)c(Cl)c1 (stereo not shown),5.79
4,O=C(/C=C/c1cccs1)NC(=S)NNC(=O)Cc1cccs1,22.7
5,CCn1c(=S)[nH]c2sc3c(c2c1=O)CCCC3,18.2
6,C=C[C@@H]1c2c(F)cccc2N(S(=O)(=O)c2ccc(C)cc2)[C@H](c2ccc(OC(C)=O)cc2)C1(C#N)C#N,7.82
7,COC(=O)c1nc(NC(=O)c2ccccc2Cl)n[nH]1,16.2
8,CCNC(=O)COc1ccc(C=O)cc1OC,13.3
9,Cc1ccc(-c2nc3ccccc3s2)cc1S(=O)(=O)N1CCCC1,-5.41
10,CC(OC(=O)c1ccc(Cl)c(S(=O)(=O)N2CCOCC2)c1)C(=O)NC1CCCCC1C (stereo not shown),9.4
11,COCCNC(=O)Cc1c(C)c2c(cc(C)c3c(C(C)(C)C)coc32)oc1=O,12.8
12,CCCS(=O)(=O)N1CCC(C(=O)NCCCOC(C)C)CC1,9.38
13,CCOC(=O)C1=C(C)N(CCCCCC(=O)O)C(=O)NC1c1ccc(Cl)cc1 (stereo not shown),13.9
14,CCOC(=O)C1=C(COC(=O)CCOc2ccc(C)cc2)NC(=O)NC1C (stereo not shown),1.56
15,Cc1ccc(N2CCN(S(=O)(=O)N3CCCCCC3)CC2)cc1Cl,12.6
16,CC1COC2C(O1)N(S(C)(=O)=O)CCN2S(C)(=O)=O (stereo not shown),9.63
17,Cc1ccc(CN2CC(C(=O)Nc3nnc(SCc4c(Cl)cccc4Cl)s3)CC2=O)cc1 (stereo not shown),10.8
18,CCn1cc(CNC(=O)c2cc([N+](=O)[O-])c(C)c([N+](=O)[O-])c2)cn1,4.17
19,CCC(C(=O)OCC(=O)Nc1cc(Cl)ccc1Cl)c1ccccc1 (stereo not shown),20.4
20,O=C1CSC(c2ccccc2[N+](=O)[O-])N1CCc1ccccc1 (stereo not shown),10.8
21,COCCn1c(-c2ccc3ccccc3c2)nc2c1c(=O)[nH]c(=O)n2CC(C)C,1.16
22,COc1ccc(/C=N/NC(=S)NCCc2ccccc2)cc1,15.4

row,SMILES,"hERG current change (%, negative = inhibition) at 1uM [%]"
1,CN(Cc1ccccc1)S(=O)(=O)c1cccc(C(=O)O)c1,7.43
2,Cc1ccc(-n2[nH]c(C)c(/C=N/NC(=O)c3ccc([N+](=O)[O-])cc3)c2=O)c(C)c1,15.9
3,CC(C)n1nnnc1SCC(=O)NCc1ccco1,4.38
4,O=C(NC(=S)N(CC1CCC1)CC1CCCO1)c1cccc([N+](=O)[O-])c1 (stereo not shown),3.27
5,CC1(C)C(=O)NC(=O)N1Cc1ccccc1,11.6
6,CCn1nnnc1NCc1ccc(OCc2c(F)cccc2Cl)c(OC)c1,13.6
7,O=C(NCCCCNC(=O)C(F)(F)F)C(F)(F)F,6.31
8,CNC(=S)N/N=C/c1ccc(-c2ccc(Cl)c([N+](=O)[O-])c2)o1,13.5
9,Cc1ccc(-n2c(C)nnc2SCC(=O)Nc2ccccc2)cc1,0.083
10,CCOC(=O)c1cnc2c(C)cccc2c1NCCc1ccc(OC)c(OC)c1,-4.73
11,CCOC(=O)N1CCN(C(=O)CN(c2cccc(C)c2)S(=O)(=O)c2ccccc2)CC1,0.248
12,O=C(O)c1cc(NC(=O)c2cccc(F)c2)cc(NC(=O)c2cccc(F)c2)c1,18.1
13,CC(=O)c1ccc(NC(=O)c2cccc(S(=O)(=O)N3CCN(C)CC3)c2)cc1,8.18
14,CCCCC1CCc2[nH]nc(C(=O)O)c2C1 (stereo not shown),4.01
15,CN(Cc1cnn(Cc2ccccc2)c1)C(=O)CN=C1NS(=O)(=O)c2ccccc21,2.25
16,COc1ccc(C(=O)Nc2ccc(Cl)cn2)cc1Cl,9.55
17,CCOC(=O)c1ccc(NS(=O)(=O)c2cccc3nsnc23)cc1,-4.59
18,CC(=O)Nc1cc(NC(C)=O)cc(C(=O)N2CCCC3CCCCC32)c1 (stereo not shown),8.64
19,O=C(COc1ccc2ccccc2c1)N1CCCC1,1.53
20,Cc1ccc(S(=O)(=O)N2CCCC2C(=O)NCc2ccccc2F)cc1 (stereo not shown),13.9
21,Cc1c(Cl)cccc1NC(=O)Cn1c(CCC(=O)O)ccc1-c1ccc(Cl)cc1,10.6
22,O=C(Nc1cccc(-c2nc3ccccc3o2)c1)c1cccnc1,-21.6

# Reference: PMC4336329 (PLoS ONE, 2015)
